Whole data set: some 1,400 sequences, median “thermal melting temperature (Tm) of peptide-HLA complex” near 60, cut for the lowest 2% near 45. Some of the results follow.
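Further: cell lysates heated 10 min at 37–73 °C, remaining pHLA pulled down with pan-class I antibody, peptides quantified by DIA-MS versus 37 °C, Tm where half the complex is lost.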

The target in this assay is HLA-B*07:02. As to the kind of experiment: thermal melting temperature (Tm) of peptide-HLA complex; higher = more thermostable pHLA complex. Conditions: C1R-B*07:02.
On to LPKVGLIAF, for which the thermal melting temperature came to 62.7 °C.
Regarding EPRYALTTTL, the thermal melting temperature was determined as 57.8 °C.
IPYGERITL gave a thermal melting temperature of 61.4 °C.
The figure for APKAPAATSIL is 62 °C; for VPALPKSLISL it is 64.4 °C.
For APDKHHITPLL, the thermal melting temperature was found to be 43.7 °C.
The figure for IVDGNHRLTL is 58.4 °C.
The figure for APAERQIDL is 60.1 °C; for SPTLPAARSSL it is 56.9 °C; for RPFERTITM it is 56.5 °C.
QPILRFLQL yielded a thermal melting temperature of 60.8 °C.
In the case of RPIAAGDISTF, the thermal melting temperature stood at 56.6 °C.
The figure for RPPTLQPPTL is 52.1 °C; for RPTGSVSSTL it is 53.4 °C.
With KPYAHILSV, the thermal melting temperature was 55.5 °C.
The figure for SPMSDVVSREL is 62.1 °C; for SPRGFPLGLSA it is 62.3 °C; for TPIQGTSEL it is 59.8 °C.
As to RPYPQVQML, the thermal melting temperature turned out to be 60.9 °C.
Sequence LPRGSIPRSL came in with a thermal melting temperature of 62.3 °C.
NPRDLPLMAL: the thermal melting temperature turned out to be 58.4 °C.
In the case of APILRARLLPL, the thermal melting temperature amounted to 47.3 °C.
Take SPRSVGPFAL: the thermal melting temperature was 62.8 °C.
The figure for RPEEGFVEL is 54.5 °C; for QPAPTPLKM it is 56.8 °C.
Sequence RPYSPSQYAL returned a thermal melting temperature of 56 °C.
In the case of SPNQSLRLGL, the thermal melting temperature came out at 61 °C.
APRAPRALAAA gave a thermal melting temperature of 56.9 °C.
The figure for PAEGRVAL is 56.8 °C.
In turn, NPHGARLSL came in with a thermal melting temperature of 57.6 °C.
Turning to APFTGSSLEL, the thermal melting temperature stood at 60 °C.
In the case of SPRPVALAL, the thermal melting temperature came to 63.1 °C.
As for NPRQPLPASGL, the figure is 58.3 °C; as for QPRIFGGVL, 62.6 °C; as for TPHYVTQVI, 59.7 °C.
RPFNSWEAL registered a thermal melting temperature of 61.5 °C.
In the case of RPISVIGGVSL, the thermal melting temperature was found to be 62.3 °C.
APIAKVGVL came in with a thermal melting temperature of 62.1 °C.
As for LPHGGEGWQQL, the figure is 58.4 °C.
Sequence LPHNRLVSL showed a thermal melting temperature of 60.6 °C.
The sequence APNLGRSFHIL registered a thermal melting temperature of 61.5 °C.
In the case of HPLSNPAEL, the thermal melting temperature turned out to be 57 °C.
In the case of SPSLPSRTL, the thermal melting temperature is 59.4 °C.
LPDGKRAVV came in with a thermal melting temperature of 60.7 °C.
Regarding YPMDLGGRNFL, the thermal melting temperature was found to be 61.5 °C.
The figure for TPRSGEGTVL is 55.4 °C; for KPFGYGYPTL it is 60 °C; for APRRGPALL it is 62.1 °C.
The figure for KPYLPSRAL is 60.5 °C; for QPITPGPSI it is 58.8 °C; for RPAVIGDVL it is 59.3 °C.
For LPRPWSVPPL, the thermal melting temperature came out at 60 °C.
Regarding RPIASGPVV, the thermal melting temperature came to 58.1 °C.
In turn, VPTLRSEL yielded a thermal melting temperature of 62.9 °C.
TPRIPSRLL: the thermal melting temperature stood at 57.6 °C.
SPHSPFYQL: the thermal melting temperature is 60.8 °C.

These data come from the supplement of paper PMC7726561.
